# Test results reported in publication PMC4336329 (PLoS ONE, 2015).
# In all, about 310,000 compounds went through this assay and about 2,200 (0.71%) showed an effect of 50% or more. The effect is printed as a negative number. The list shows a part of the results.
# Target: human ether-à-go-go-related gene (hERG) potassium channel (human, UniProt Q12809)
# Test: primary screen, population patch clamp on CHO cells stably expressing hERG
# human ether-à-go-go-related gene (hERG) potassium channel, sequence (Q12809 whole entry, looked up): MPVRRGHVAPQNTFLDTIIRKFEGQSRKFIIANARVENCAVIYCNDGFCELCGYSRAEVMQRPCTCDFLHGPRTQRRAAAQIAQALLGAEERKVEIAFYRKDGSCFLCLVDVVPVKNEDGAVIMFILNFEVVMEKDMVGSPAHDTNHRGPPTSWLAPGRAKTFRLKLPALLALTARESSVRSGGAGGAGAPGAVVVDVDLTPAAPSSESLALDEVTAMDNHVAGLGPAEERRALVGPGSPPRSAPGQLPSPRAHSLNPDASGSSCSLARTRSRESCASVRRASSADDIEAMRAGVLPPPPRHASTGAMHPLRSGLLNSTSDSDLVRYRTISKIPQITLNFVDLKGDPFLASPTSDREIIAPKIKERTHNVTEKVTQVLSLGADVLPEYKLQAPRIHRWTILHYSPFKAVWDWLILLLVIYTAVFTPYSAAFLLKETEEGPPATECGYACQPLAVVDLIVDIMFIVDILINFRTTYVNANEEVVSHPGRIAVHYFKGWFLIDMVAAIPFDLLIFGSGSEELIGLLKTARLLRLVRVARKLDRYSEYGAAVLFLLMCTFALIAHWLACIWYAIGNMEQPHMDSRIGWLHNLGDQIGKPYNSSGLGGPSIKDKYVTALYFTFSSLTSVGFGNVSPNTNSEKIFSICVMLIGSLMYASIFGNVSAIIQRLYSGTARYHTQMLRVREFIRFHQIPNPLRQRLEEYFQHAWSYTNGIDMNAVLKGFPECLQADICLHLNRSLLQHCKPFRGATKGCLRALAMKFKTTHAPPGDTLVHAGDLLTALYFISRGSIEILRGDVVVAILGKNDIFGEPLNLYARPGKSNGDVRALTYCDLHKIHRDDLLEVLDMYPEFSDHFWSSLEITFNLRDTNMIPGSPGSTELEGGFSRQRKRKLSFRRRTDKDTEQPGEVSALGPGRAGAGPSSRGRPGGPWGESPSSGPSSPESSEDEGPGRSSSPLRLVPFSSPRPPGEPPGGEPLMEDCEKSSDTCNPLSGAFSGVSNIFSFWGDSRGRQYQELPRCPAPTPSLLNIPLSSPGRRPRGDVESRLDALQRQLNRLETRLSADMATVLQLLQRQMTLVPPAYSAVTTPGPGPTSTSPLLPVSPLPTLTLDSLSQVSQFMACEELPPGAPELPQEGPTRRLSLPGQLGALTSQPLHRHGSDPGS
row,Compound,"hERG current change (%, negative = inhibition) at 1uM"
1,CC(=O)c1sc2nsc(SCCN3CCCCC3)c2c1N,9.52%
2,O=C(CN1C(=O)S/C(=C\c2ccc(F)cc2)C1=O)NC1C=CS(=O)(=O)C1 (stereo not shown),14.6%
3,Cc1cccc(OCC(=O)N/N=C/c2sc(=O)n(Cc3cccc(C(=O)O)c3)c2Cl)c1,6.17%
4,COc1ccc2[nH]c3c(c2c1)CCN1C(=O)N([C@@H](C)C(=O)NCc2c(F)cccc2Cl)C(=O)[C@]31C,-3.2%
5,N#CC1(NC(=O)COC(=O)CN2C(=O)c3ccccc3C2=O)CCCCC1,-3.5%
6,COC(=O)C1CCN(C(=O)c2oc3c(Cl)cc(C)cc3c2C)CC1,6.99%
7,Br.O=C(Cn1c(NCCO)nc2ccccc21)c1ccc([N+](=O)[O-])cc1,20.2%
8,CC(OC(=O)c1cc(Br)ccc1O)C(=O)NC1(C#N)CCCCC1 (stereo not shown),23.2%
9,C/C(=N/NC(=O)c1ccc(C)s1)c1cccc(NC(=O)COc2ccc(Cl)cc2Cl)c1,9.03%
10,CCC(c1nnc(SCC(=O)Nc2ccc(N3CCOCC3)cc2)n1Cc1ccccc1)N(C)C (stereo not shown),11.7%
11,Cn1c(=O)oc2cc(S(=O)(=O)NCc3ccc(C(=O)O)cc3)ccc21,38.2%
12,COC(=O)C1=C(c2cccc(OC)c2OC)C[C@@H]2CC[C@H]1N2C(=O)N1CCOCC1,9.06%
13,CCc1ccc(NS(=O)(=O)c2ccc3[nH]cc(C(=O)N4CCCCC4)c(=O)c3c2)cc1,10.3%
14,Nc1ccc2oc(=O)c3ccccc3c2c1,5.87%
15,CC(C)(C)OC(=O)N1C[C@H](O)C[C@H]1C(=O)OCC(=O)c1ccc([N+](=O)[O-])cc1,-33.8%
16,Brc1ccccc1OCCCCCN1CCCC1,-12.3%
17,Cc1ccc(C(=O)OCN2C(=O)c3ccccc3C2=O)c(O)c1,15.7%
18,O=c1[nH]c(=O)n(Cc2ccco2)c(O)c1/C=N/N1CCCCC1,10.6%
19,CCC(C)[C@H](NC(=O)NCc1ccco1)C(=O)OC (stereo partly shown),3.92%
20,CNC(=O)c1c(O)c2cccc3c2n(c1=O)CC3,3.88%
21,O=C(CSc1nnc(-c2ccc(C(F)(F)F)cn2)o1)Nc1ccccc1Cl,19.4%
22,CC(C)Cn1c(=O)c2sccc2n2c(CCCC(=O)N3CCC(N4CCCCC4)CC3)nnc12,9.03%

row,Compound,"hERG current change (%, negative = inhibition) at 1uM"
1,O=c1[nH]c(N/N=C/c2ccc(O)cc2)nc2ccccc12,13.9%
2,Cc1nn(C(=O)c2ccco2)c(C)c1Sc1ccccc1,9.41%
3,c1ccc(-c2nc[nH]c2-c2ccccc2)cc1,-2.74%
4,CCCOC(=O)c1ccc(NC(=O)c2cc(OC)c(OC)c(OC)c2Br)cc1,19.1%
5,COc1ccccc1NC(=S)NCc1ccc2c(c1)OCO2,6.95%
6,O=C(CCCCCn1c(=S)[nH]c2ccc(N3CCOCC3)cc2c1=O)NC1CCN(Cc2ccccc2)CC1,12.8%
7,COc1ccc(NC(=O)CSc2nnnn2C2CCCCC2)c(OC)c1,10.4%
8,NC(=O)NC(=O)CC1S/C(=N/N=C2/NC(=O)CS2)NC1=O (stereo not shown),12.6%
9,CC(c1nnc(SCC(=O)Nc2ccc3[nH]c(=O)[nH]c3c2)n1Cc1ccccc1)N(C)C (stereo not shown),14.5%
10,CCC(C)NC(=O)c1cnn2c1NC(c1cccs1)CC2C(F)(F)F (stereo not shown),-7.24%
11,CCOc1ccc(OCC)c(NC(=O)CCCN2C(=S)NC(C)(C)CC2C)c1 (stereo not shown),5.31%
12,CC1CCCC(C)N1C(=O)COc1ccc(F)cc1 (stereo not shown),7.88%
13,COC(=O)c1ccc(OCC(O)CNC2CCCC2)cc1.Cl (stereo not shown),11.7%
14,O=C(OCc1nnc(-c2ccccc2)o1)c1cc(=O)[nH]c2ccccc12,21.3%
15,O=C(Nc1ccc(S(=O)(=O)Nc2ncccn2)cc1)c1cncc(Br)c1,6.9%
16,Cc1ccc2nc3c(c(C(=O)OCC(=O)NC4CCS(=O)(=O)C4)c2c1)CCCC3 (stereo not shown),9.2%
17,Cc1ccccc1OCCn1c(CCNC(=O)C(C)C)nc2ccccc21,12.6%
18,O=C(COc1ccc(Br)cc1Br)NC1CCS(=O)(=O)C1 (stereo not shown),5.54%
19,COc1ccc(NC(=O)Nn2cnnc2)cc1OC,12.9%
20,Cc1ccc(NC(=O)C(C)N2CCOCC2)c(C(=O)c2ccccc2)c1 (stereo not shown),-0.0491%
21,OCCNc1nc(Nc2cc(Cl)ccc2OC2CCCC2)nc(N2CCCC2)n1,14.5%
22,O=C(CSc1nnc2ccccn12)N1CCOCC1,12.1%

row,Compound,"hERG current change (%, negative = inhibition) at 1uM"
1,COc1ccc(-c2noc(C3CCCN(S(=O)(=O)c4ccc(C)c(Cl)c4)C3)n2)cc1OC (stereo not shown),-0.139%
2,C=CCn1c(C(CCCC)CC(O)COCC(C)C)n[nH]c1=S (stereo not shown),15.8%
3,COc1ccc(C)cc1NCc1ccc([N+](=O)[O-])cc1,11.2%
4,O=C(c1cc2sccc2n1Cc1ccc(F)cc1)N1CCN(c2nc3ccccc3s2)CC1,9.22%
5,O=C(CSc1ncnc2c1oc1ccccc12)Nc1cccc(Cl)c1,-2.44%
6,O=C(CN1C(=O)NC2(CCCCC2)C1=O)NCCCSc1ccccc1,9.47%
7,CC(=O)Nc1cccc(NC(=O)CSc2nc(=O)n(CCN3CCOCC3)c3c2CCCC3)c1,8.3%
8,CCCc1cc(=O)[nH]c(SC/C=C/c2ccccc2)n1,16%
9,COc1ccc(S(=O)(=O)N2CN3CCN(C3)C2)cc1,12.3%
10,Br.c1ccc2c(c1)ncn2CCN1CCCCC1,12%
11,CCN(CC)C(=O)CCCC(=O)N(CC)CC,11.9%
12,CSC1=C(C#N)C(c2ccc(C(C)C)cc2)CC(=O)N1 (stereo not shown),9.35%
13,Cc1ccc2c(C)c(C(=O)N3CCN(Cc4ccc5c(c4)OCO5)CC3)oc2c1C,14.1%
14,O=C(Nc1ccc(N2CCN(C(=O)c3ccco3)CC2)cc1)c1ccccc1F,11.6%
15,NC(=O)c1c(NC(=O)c2cccnc2)sc2c1CCCC2,8.63%
16,CC(CN(C)C)CN1c2ccccc2Sc2ccccc21.O=C(O)C(O)C(O)C(=O)O (stereo not shown),-6.57%
17,COc1cccc(NS(=O)(=O)c2cc3c(cc2C)N(C)CCO3)c1,17.1%
18,CS(=O)(=O)c1ccccc1-c1nnc(NC(=O)c2ccc(S(=O)(=O)N3CCCC3)cc2)o1,16.7%
19,CCOC(=O)c1ccc(Oc2nc(NC)nc(OC)n2)cc1,11.8%
20,COc1ccc(C(CCNC(C)c2ccccc2)C(C)C)cc1 (stereo not shown),3.64%
21,Cc1nn(C(C)C(=O)NC2C(=O)N3C(C(=O)O)=C(CSc4nnnn4C)CSC23)cc1Cl (stereo not shown),11.5%
22,O=S(=O)(c1ccc(SCc2ccccc2F)nc1)N1CCCC1,8.97%

row,Compound,"hERG current change (%, negative = inhibition) at 1uM"
1,O=C(Cc1ccccc1F)Nc1ccccc1-c1ccccc1,16.3%
2,CCCCNS(=O)(=O)c1ccc(OC)cc1,12.1%
3,O=C(Cn1c(C(=O)N2CCc3ccccc3C2)cc2sccc21)c1ccccc1,7.57%
4,O=C(NCc1ccncc1)C1CCN(S(=O)(=O)c2ccc(F)cc2)CC1,7.36%
5,COc1ccc(Cn2nnnc2C(c2ccccn2)N2CCN(c3cc(Cl)ccc3C)CC2)cc1 (stereo not shown),4.32%
6,Cc1c(C(=O)c2ccccc2)c(=O)n(C)c(=O)n1C,9.65%
7,N#Cc1cccc(NC(=O)Cn2cnc(S(=O)(=O)N3CCCC3)c2)c1,12.5%
8,CCOC(=O)c1ccc(NC(=O)Nc2ccn(C)n2)cc1,2%
9,Cc1ccc(C)c(Oc2coc3cc(OC(=O)c4cccs4)ccc3c2=O)c1,9.17%
10,CCc1cccc(C)c1NC(=O)CN1CCN(S(=O)(=O)c2ccc(C(C)(C)C)cc2)CC1,4.59%
11,CCO/C(C)=C1/SC(=S)NC1=O,8.44%
12,CCN(CC(=O)Nc1cc(S(=O)(=O)N2CCCCC2)ccc1C)Cc1ccccc1,11.6%
13,CC1=NN(Cc2ccccc2)C(=O)/C1=C/c1ccc(N(C)C)cc1,12.5%
14,COc1ccc(-c2nsc(SCC(=O)NCC3CCCO3)n2)cc1 (stereo not shown),16.6%
15,CN(CC(=O)NCc1ccccn1)S(=O)(=O)c1ccc(F)cc1,2.7%
16,Cc1ccc(Sc2ncccc2COC(=O)Nc2c(C)cccc2C)cc1,1.3%
17,Cc1cc(-c2nc(C)c(C(=O)NN)s2)no1,15.8%
18,CC1CCCCC1NC(=O)CCCCCn1c(=S)[nH]c2ccsc2c1=O (stereo not shown),25.7%
19,Cc1cc(NC(=O)COC(=O)c2ccc([N+](=O)[O-])cc2Cl)no1,-0.0199%
20,C/C(N)=C(/C#N)C(=O)COC(=O)c1ccc(C)c(S(=O)(=O)N2CCCCC2)c1,8.62%
21,Cc1ccc(-c2nnn(CC(=O)N(Cc3cccs3)C(C(=O)NCC3CCCO3)c3ccco3)n2)o1 (stereo not shown),-0.222%
22,O=C1c2ccccc2NC(c2ccccc2O)N1NS(=O)(=O)c1ccccc1 (stereo not shown),-1.21%
